Results: paper PMC4336329 (PLoS ONE, 2015)
Screen size: about 310,000 compounds; about 14,000 (4.5%) showed an effect of 50% or more. Effects have a minus sign here. This is one part of the list.

Biological target: human ether-à-go-go-related gene (hERG) potassium channel (human, UniProt Q12809)
Experiment: primary screen, population patch clamp on CHO cells stably expressing hERG
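Note: peak tail current of the secondary pulse compared with the same well before compound.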

Sequence of human ether-à-go-go-related gene (hERG) potassium channel (Q12809 whole entry, looked up): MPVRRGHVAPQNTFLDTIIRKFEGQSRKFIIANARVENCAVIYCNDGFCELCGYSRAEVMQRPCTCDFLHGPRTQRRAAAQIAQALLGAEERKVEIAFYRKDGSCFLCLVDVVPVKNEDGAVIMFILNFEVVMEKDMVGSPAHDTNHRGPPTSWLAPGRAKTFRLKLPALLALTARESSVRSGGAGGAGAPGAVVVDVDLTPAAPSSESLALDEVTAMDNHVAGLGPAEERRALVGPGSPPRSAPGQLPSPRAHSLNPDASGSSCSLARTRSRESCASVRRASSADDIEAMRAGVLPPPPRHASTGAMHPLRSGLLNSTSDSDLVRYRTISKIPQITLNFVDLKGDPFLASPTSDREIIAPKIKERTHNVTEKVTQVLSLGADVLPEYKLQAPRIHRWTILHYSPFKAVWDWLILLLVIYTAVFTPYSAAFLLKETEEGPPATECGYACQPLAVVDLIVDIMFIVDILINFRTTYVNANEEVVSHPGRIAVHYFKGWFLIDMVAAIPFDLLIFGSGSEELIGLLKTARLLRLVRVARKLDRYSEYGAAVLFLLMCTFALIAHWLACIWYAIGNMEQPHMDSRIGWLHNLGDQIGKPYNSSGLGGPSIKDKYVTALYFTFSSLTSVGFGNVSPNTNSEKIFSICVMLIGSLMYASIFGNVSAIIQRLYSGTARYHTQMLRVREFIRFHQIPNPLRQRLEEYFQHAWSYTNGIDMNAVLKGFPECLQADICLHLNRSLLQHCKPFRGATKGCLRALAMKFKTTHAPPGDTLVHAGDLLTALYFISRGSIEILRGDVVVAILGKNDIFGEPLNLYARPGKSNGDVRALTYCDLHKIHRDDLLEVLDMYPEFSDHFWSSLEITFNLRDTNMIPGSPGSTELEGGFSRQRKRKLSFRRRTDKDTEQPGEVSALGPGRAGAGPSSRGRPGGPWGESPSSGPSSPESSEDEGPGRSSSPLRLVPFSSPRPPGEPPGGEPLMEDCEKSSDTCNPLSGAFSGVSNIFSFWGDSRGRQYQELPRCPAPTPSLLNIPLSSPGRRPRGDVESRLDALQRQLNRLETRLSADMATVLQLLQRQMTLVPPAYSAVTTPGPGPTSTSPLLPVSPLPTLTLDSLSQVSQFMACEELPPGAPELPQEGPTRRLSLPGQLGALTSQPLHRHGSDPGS

| SMILES | hERG current change (%, negative = inhibition) at 10uM [%] |
| --- | --- |
| NC(=O)COC(=O)c1ccc(C(=O)C(=O)c2ccccc2)cc1 | 11.3 |
| COc1ccc(NC(=O)c2cccc(-c3ccc(O)cc3)c2)cn1 | 8.89 |
| CC(C)CC1NC(=O)N(CC(=O)Nc2ccc3c(c2)CCC3)C1=O (stereo not shown) | 0.892 |
| CCN(CC)S(=O)(=O)c1ccc2oc(C(=O)NC(C)C)c(C)c2c1 | 0.758 |
| Cc1ccc(NC2=NCC(=O)N2Cc2ccccc2)c(C)c1 | 2.18 |
| Cc1cccc(NC(=S)N2CCN(C(=O)c3ccco3)CC2)c1C | 14.9 |
| CCOC(=O)C(O)(c1ccc(N(CC)C(=O)COc2ccccc2)cc1)C(F)(F)F (stereo not shown) | -13.8 |
| CS(=O)(=O)O/N=C1\CCCCC1c1ccc([N+](=O)[O-])cc1[N+](=O)[O-] (stereo not shown) | -14 |
| CN(C)CCOC(=O)c1cccc(Br)c1.Cl | -12.8 |
| COC(=O)c1cc(S(=O)(=O)NCC2CCN(Cc3ccc(C)cc3)CC2)c[nH]1 | -73.8 |
| O=c1cc(-c2ccc(F)cc2F)[nH]c2ccccc12 | -0.184 |
| O=C(CCCn1c(=S)[nH]c2ccc(Br)cc2c1=O)NCc1ccccn1 | 12.9 |
| Cc1ccc(C(=O)c2ccc([N+](=O)[O-])cc2)cc1C | 7.38 |
| C=CCOc1ccc(C2C(C#N)=C(N)N(Nc3ccccc3)C3=C2C(=O)CCC3)cc1OC (stereo not shown) | -19.4 |
| CCC1Sc2ccc(S(=O)(=O)Nc3ccc(OC)cc3)cc2NC1=O (stereo not shown) | 10.3 |
| COc1ccccc1-c1noc(-c2cc(OC)c(OC)c(OC)c2)n1 | 5.28 |
| CCOc1ccc(NC(=O)C(=O)NCCN2CCN(S(=O)(=O)c3ccccc3)CC2)cc1 | -8.75 |
| Cl.N=c1sccn1CC(=O)Nc1ccc(S(N)(=O)=O)cc1 | 18.2 |
| COc1ccccc1CCNC(=O)C(=O)NCC1OCCCN1S(=O)(=O)c1cc(C)ccc1C (stereo not shown) | -9.51 |
| CCOc1ccccc1NC(=O)c1ccc(Cl)c(NC(=O)CC(c2ccccc2)c2ccccc2)c1 | 2.16 |
| COc1cccc(OCCNCc2ccccc2)c1.O=C(O)C(=O)O | 2.51 |
| COc1ccccc1-c1cn[nH]c(=S)n1 | 20.1 |

| SMILES | hERG current change (%, negative = inhibition) at 10uM [%] |
| --- | --- |
| Cc1ccc(C(=O)N/C(=C/c2ccco2)C(=O)NC2CCS(=O)(=O)C2)cc1 (stereo not shown) | 16 |
| O=C(NNC(=O)c1cccc(Br)c1)Nc1ccc(Cl)cc1 | 18.9 |
| CCOC(=O)CN1C(=O)/C(=C/c2cccc(Br)c2)Oc2ccccc21 | 14.7 |
| Nc1ncnc2c1ncn2CCNCCc1ccccc1 | -32.9 |
| Cc1nn(-c2ccccc2)c(C)c1NC(=O)COC(=O)CCOc1ccccc1 | -9.75 |
| Cc1ccc(C(=O)NC(C)C2CC3CCC2C3)cc1 (stereo not shown) | 19.1 |
| CCc1ccc(N2C(=O)NC(=O)/C(=C/c3cccn3CCOc3ccc(C(C)CC)cc3)C2=O)cc1 (stereo not shown) | 7.9 |
| O=C(CNS(=O)(=O)c1ccc(Br)s1)NCc1ccccc1 | 14.5 |
| Cc1c(Cl)c(C(=O)N2CCCCCC2)nn1C | 14.1 |
| O=CNNC(=O)c1cccc([N+](=O)[O-])c1 | 19.7 |
| COc1cccc(Cl)c1NC(=O)N1CCN(c2cc(C)nc3ccccc23)CC1 | -75.3 |
| CC(Oc1ccc2c(c1)oc(=O)c1ccccc12)C(=O)NC(Cc1c[nH]c2ccc(O)cc12)C(=O)O (stereo not shown) | 16.6 |
| O=C(CCSc1ccccc1)NCCSc1ccccn1 | -0.175 |
| CCN(C(=O)COC(=O)c1[nH]c(=O)[nH]c(=O)c1N)c1ccccc1 | 36.4 |
| CN(C)c1ccc(-c2cccc(C3CC=CC4C3C(=O)N(Cc3ccccc3)C4c3ccc(C(F)(F)F)cc3)c2)cc1 (stereo not shown) | 20.1 |
| CCCC(=O)Nc1nc(C)c(-c2csc(Nc3ccccc3C)n2)s1 | 13 |
| CCCn1c(SCC(=O)c2ccc3c(c2)OCCO3)nnc1C(C)C | -14.4 |
| CN(Cc1ccccc1)S(=O)(=O)c1ccc(NC(=S)NC(=O)C2CCCC2)cc1 | 24.6 |
| COc1ccc(OCC(=O)Nc2ccccc2N2CCN(C)CC2)cc1 | -38.6 |
| O=C(CSc1ncnc2nc[nH]c12)c1ccc(Cl)cc1 | 4.11 |
| CCCNC(=O)Cn1cnc2sc(C(=O)N3CCN(Cc4ccc5c(c4)OCO5)CC3)c(C)c2c1=O | -7.68 |
| COc1ccc(OCC(=O)NNC(=O)c2cccc(S(=O)(=O)N(C)C)c2)cc1 | 7.55 |

| SMILES | hERG current change (%, negative = inhibition) at 10uM [%] |
| --- | --- |
| Cc1ccc(C(=O)CSc2nc(N)cc(=O)[nH]2)cc1C | 1.17 |
| COc1ccc(/C=N/Nc2nonc2N)cc1OC | -0.416 |
| S=c1nc(-c2ccccc2Cl)n(Cc2cccnc2)c2c1CCCC2 | 11.2 |
| COc1ccc(CCNC(=O)C2CCC(=O)N2Cc2ccccc2Cl)cc1OC (stereo not shown) | 12.6 |
| Fc1ccc(N2CCN(c3cnc4ccccc4n3)CC2)cc1 | 6.24 |
| COc1ccc(C(C)=O)cc1COc1cccnc1[N+](=O)[O-] | 3.06 |
| CC(=O)Nc1ccc(S(=O)(=O)N(CCc2ccccc2)CC(=O)N/N=C/c2ccc(C(=O)O)cc2)cc1 | 21.6 |
| NC(=O)c1cccc(-c2cc(Nc3ccc(OC(F)(F)F)cc3)ncn2)c1 | -4.81 |
| CCC(CC)NC(=O)c1ccc2c(c1)OCCO2 | 7.58 |
| COc1ccc(C(C)C)cc1S(=O)(=O)NC1CCCC1 | 15.2 |
| Cc1cccc(N2CCN(C(=O)c3cccc(N4C(=O)C5CC=CC(C)C5C4=O)c3)CC2)c1C (stereo not shown) | -12.5 |
| O=C(O)c1cnn2c(-c3ccc(F)cc3)ccnc12 | 21.7 |
| CCOc1cc(C=O)ccc1OCC(=O)NC(C)(C)C | 13.8 |
| O=C(CCCN1C(=O)S/C(=C/c2ccccc2)C1=S)Nc1ccc(C(=O)O)cc1 | 4.33 |
| Cc1ccc(C)c(Nc2nc(-c3cccnc3)cs2)c1 | 3.66 |
| Cc1noc(C)c1S(=O)(=O)NCCN1CCN(c2ccccc2)CC1 | -2.02 |
| C=CCNc1nnc(Cc2ccc(F)cc2)c(=O)[nH]1 | 20.9 |
| NCCCCCc1cn([C@@H](CO)C(=O)NCCCCCCCCCCC(=O)N2CCNCC2)nn1 | -0.955 |
| CCN(CC)C(=O)c1[nH]cnc1C(=O)N[C@@H](C)C(=O)OCc1ccccc1 | 6.82 |
| CC(C(=O)NC1CCCc2ccccc21)N1C(=O)C2CCCCC2C1=O (stereo not shown) | 1.23 |
| O=C1NC(c2ccccc2)(C(F)(F)F)SC2=CCCCCN12 (stereo not shown) | 15.1 |
| CN(CC(=O)NCCc1ccc(S(N)(=O)=O)cc1)S(=O)(=O)c1ccc(Br)s1 | -0.634 |

| SMILES | hERG current change (%, negative = inhibition) at 10uM [%] |
| --- | --- |
| O=C(c1cccc(S(=O)(=O)N2CCOCC2)c1)N1CCC(Cc2ccccc2)CC1 | -30.4 |
| CCC(CC)C(=O)NCCc1cc2c(C)ccc(C)c2[nH]c1=O | 2.39 |
| Cc1ccc(S(=O)(=O)N2CCCC2C(=O)Nc2nc3ccccc3s2)cc1 (stereo not shown) | -14.8 |
| C=CCN1C(=O)[C@@H]2Cc3c([nH]c4ccccc34)C(c3cc(OC)c(OC)c(OC)c3)N2C1=S (stereo partly shown) | 18.1 |
| O=C(N/N=C/c1ccc([N+](=O)[O-])o1)c1cn(-c2ccccc2)nc1-c1ccc(Cl)cc1 | 9.89 |
| COc1cccc(C(=O)CSc2nnnn2C2CCCCC2)c1 | 7.17 |
| CC(=O)N1N=C(c2ccc3ccccc3c2)OC1(C)C | -2.22 |
| Cl.O=C(OCCN1CCCCC1)c1ccccc1Br | -37.3 |
| O=C1NC(=O)C(CCc2ccncc2)(CCc2ccncc2)C(=O)N1C1CCCCC1 | -75.3 |
| COc1cc(C)nc(N(C)S(=O)(=O)c2ccccc2Cl)n1 | -3.1 |
| COCCn1c(C)nnc1SCC(=O)NNC(=O)c1ccc(Cl)cc1 | 16.4 |
| O=C(NC(=S)NNS(=O)(=O)c1ccccc1)c1ccc([N+](=O)[O-])cc1 | 8.74 |
| Cc1c2ccccc2cc[n+]1CCCS(=O)(=O)[O-] | 28.4 |
| COc1cc(C(=O)Nc2ccc(OCC(=O)N3CCOCC3)cc2C)cc(OC)c1OC | 14.8 |
| O=C(Cn1cnc2c(nnn2Cc2ccc(Cl)cc2)c1=O)NC1CCCC1 | 13.7 |
| COc1cc2nc(Nc3ccc(F)cc3)nc(N)c2cc1OC.Cl | -17.2 |
| Cc1ccc2oc(=O)c(/C=C(\O)c3ccco3)nc2c1 | 13.4 |
| CCOC(=O)NCC(C#CCN(CC)CC)N(CC)CC (stereo not shown) | -1.15 |
| CC(=O)Nc1ccc(S(=O)(=O)N[C@@H](C)C(=O)OCc2cc([N+](=O)[O-])cc3c2OCOC3)cc1 | -4.19 |
| C/C(=N\NC(=O)CNC(=O)c1ccccc1Br)c1ccco1 | 2.5 |
| COc1ccc(Nc2ccnc3ccccc23)cc1.Cl | -33.8 |
| Cc1ccc(OCC(=O)NN2C(=O)c3ccccc3C2=O)c(C)c1 | 6.34 |
